In PMC4336329 (PLoS ONE, 2015):
About 14,000 (4.5%) of roughly 310,000 compounds showed an effect of 50% or more. The effect is printed as a negative number. The list shows a part of the results.

Target: human ether-à-go-go-related gene (hERG) potassium channel (human, UniProt Q12809)
Experiment: primary screen, population patch clamp on CHO cells stably expressing hERG
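Note: peak tail current of the secondary pulse compared with the same well before compound.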

Chain of human ether-à-go-go-related gene (hERG) potassium channel (Q12809 whole entry, looked up): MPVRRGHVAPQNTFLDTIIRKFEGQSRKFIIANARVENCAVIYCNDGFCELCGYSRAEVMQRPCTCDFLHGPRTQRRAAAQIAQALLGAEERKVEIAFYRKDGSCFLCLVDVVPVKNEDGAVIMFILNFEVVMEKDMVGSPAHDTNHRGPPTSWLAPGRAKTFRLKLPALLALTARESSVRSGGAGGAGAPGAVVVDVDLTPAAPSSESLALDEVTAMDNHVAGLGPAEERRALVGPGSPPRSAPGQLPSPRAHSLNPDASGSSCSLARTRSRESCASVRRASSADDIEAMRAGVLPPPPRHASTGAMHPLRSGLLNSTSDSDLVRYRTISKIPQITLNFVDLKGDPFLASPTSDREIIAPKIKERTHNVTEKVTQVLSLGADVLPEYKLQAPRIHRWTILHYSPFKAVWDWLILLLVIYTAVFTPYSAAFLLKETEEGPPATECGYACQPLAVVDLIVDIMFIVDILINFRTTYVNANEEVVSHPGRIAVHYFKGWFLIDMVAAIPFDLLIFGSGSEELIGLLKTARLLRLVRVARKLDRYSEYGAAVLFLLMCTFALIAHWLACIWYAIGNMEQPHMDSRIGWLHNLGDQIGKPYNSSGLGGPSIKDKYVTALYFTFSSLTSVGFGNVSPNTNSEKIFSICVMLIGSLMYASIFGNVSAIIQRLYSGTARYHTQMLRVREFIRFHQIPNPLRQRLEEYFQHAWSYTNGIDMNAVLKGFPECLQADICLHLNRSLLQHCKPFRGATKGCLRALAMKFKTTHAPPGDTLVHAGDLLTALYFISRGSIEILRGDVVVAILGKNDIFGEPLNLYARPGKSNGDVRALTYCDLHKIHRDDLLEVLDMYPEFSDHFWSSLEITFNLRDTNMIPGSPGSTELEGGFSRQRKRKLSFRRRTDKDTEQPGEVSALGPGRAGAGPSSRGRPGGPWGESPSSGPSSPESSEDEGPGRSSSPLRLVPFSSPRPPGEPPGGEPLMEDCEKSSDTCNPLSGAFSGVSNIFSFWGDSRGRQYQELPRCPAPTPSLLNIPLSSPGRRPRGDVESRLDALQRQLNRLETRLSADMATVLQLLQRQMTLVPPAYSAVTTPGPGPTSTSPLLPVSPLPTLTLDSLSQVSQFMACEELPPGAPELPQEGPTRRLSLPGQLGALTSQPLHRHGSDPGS

Q: Which “hERG current change (%, negative = inhibition) at 10uM” value does the source give for NNC(=O)c1cn2ccccc2n1 here?
A: Its value is -3.57%.

Q: How did the “hERG current change (%, negative = inhibition) at 10uM” value turn out when S=C(NCC1CCCO1)Nc1ccc(Cl)c(Cl)c1 (centres unmarked) was run?
A: Its value is -17.2%.

Q: Cc1ccc(C2=NNC(=O)C(c3c[nH]c4ccccc34)C2)cc1 (centres unmarked) was tested. Which “hERG current change (%, negative = inhibition) at 10uM” value did it give?
A: Its value is 23.3%.

Q: For CSc1ccc(/C=N\NC(=O)CC(=O)NC(C)C)cc1, which “hERG current change (%, negative = inhibition) at 10uM” value is on record?
A: Its value is 7.48%.

Q: O=S(=O)(c1ccc(Br)cc1)c1nc(-c2ccccc2)oc1N1CCOCC1 was tested. Which “hERG current change (%, negative = inhibition) at 10uM” value did it give?
A: The value was -30.7%.

Q: For COc1cc(/C=N/NC(=O)CCc2ccccc2)ccc1O, which “hERG current change (%, negative = inhibition) at 10uM” value is on record?
A: The value was -1.02%.

Q: Which “hERG current change (%, negative = inhibition) at 10uM” value does the source give for CC(=O)c1ccc(OCC(=O)OC(C)C(=O)NC2CCCCC2C)cc1 (centres unmarked) here?
A: The value was 26.9%.

Q: [N-]=[N+]=CC(=O)C(Cc1ccccc1)N1C(=O)c2ccccc2C1=O (centres unmarked) was tested. Which “hERG current change (%, negative = inhibition) at 10uM” value did it give?
A: Its value is 11.6%.

Q: How did the “hERG current change (%, negative = inhibition) at 10uM” value turn out when O=C(N/N=C/c1cn(CCOc2ccccc2)c2ccccc12)c1ccncc1 was run?
A: The value was -12%.

Q: With O=C(Nc1ccccc1Oc1cccnc1)C1CCCN(Cc2ccc(F)cc2)C1 (centres unmarked) as the compound, how does the “hERG current change (%, negative = inhibition) at 10uM” value read?
A: Its value is -36.2%.

Q: CCCC(C)NS(=O)(=O)c1ccc(OC)c(C)c1 (centres unmarked) was tested. Which “hERG current change (%, negative = inhibition) at 10uM” value did it give?
A: The value was -7.85%.

Q: Which “hERG current change (%, negative = inhibition) at 10uM” value does the source give for CCN(CC)S(=O)(=O)c1cc(NC(=O)C2CCN(c3ncnc4sc(C)c(C)c34)CC2)ccc1Cl here?
A: Its value is 23.3%.

Q: For C=CCn1c(O)c(C2=c3ccccc3=NC2=O)c2ccccc21, which “hERG current change (%, negative = inhibition) at 10uM” value is on record?
A: The value was 15%.

Q: For O=C(Nc1cc([N+](=O)[O-])ccc1C(=O)NCCN1CCOCC1)c1ccccc1, which “hERG current change (%, negative = inhibition) at 10uM” value is on record?
A: The value was -44.9%.

Q: For Cc1ccc(NC(=O)CNc2ccc(Cl)cc2F)cc1, which “hERG current change (%, negative = inhibition) at 10uM” value is on record?
A: The value was -5.7%.

Q: COc1ccccc1NC(=O)Cn1cnc2c(nc3n2CCCCC3)c1=O was tested. Which “hERG current change (%, negative = inhibition) at 10uM” value did it give?
A: Its value is -11.4%.

Q: For O=C(CN1CCN(S(=O)(=O)c2ccccc2)CC1)Nc1ccc([N+](=O)[O-])cc1, which “hERG current change (%, negative = inhibition) at 10uM” value is on record?
A: Its value is -73.4%.

Q: Cc1ccccc1CSc1nnc(-c2cccnc2)n1N was tested. Which “hERG current change (%, negative = inhibition) at 10uM” value did it give?
A: Its value is 3.34%.

Q: With O=C(OCc1nc2ccsc2c(=O)[nH]1)c1ccccc1 as the compound, how does the “hERG current change (%, negative = inhibition) at 10uM” value read?
A: The value was 0.869%.

Q: With COC(=O)CCC(=O)N1CCCC(N2CCN(c3cccc(C(F)(F)F)c3)CC2)C1 (centres unmarked) as the compound, how does the “hERG current change (%, negative = inhibition) at 10uM” value read?
A: Its value is -35.8%.

Q: Which “hERG current change (%, negative = inhibition) at 10uM” value does the source give for COc1cccc(NC(=O)C(NC2CCCC2)c2ccccc2)c1 (centres unmarked) here?
A: The value was -21.8%.

Q: With Cc1cccnc1NC(=O)c1ccc(Br)o1 as the compound, how does the “hERG current change (%, negative = inhibition) at 10uM” value read?
A: Its value is 32.6%.

Q: With CCOC(=O)c1[nH]c(C)c(C(=O)OCC(=O)NCc2ccc(Cl)cc2)c1C as the compound, how does the “hERG current change (%, negative = inhibition) at 10uM” value read?
A: The value was -0.581%.

Q: For COc1ccc(/C=N/NC(=O)C(Cc2c[nH]c3ccccc23)NC(=O)OCC(C)C)cc1[N+](=O)[O-] (centres unmarked), which “hERG current change (%, negative = inhibition) at 10uM” value is on record?
A: The value was 7.74%.

Q: Which “hERG current change (%, negative = inhibition) at 10uM” value does the source give for CCOc1ccccc1CNC(=O)CCn1ccc2cc(S(=O)(=O)N3CCCCC3)ccc21 here?
A: Its value is 4.73%.

Q: Which “hERG current change (%, negative = inhibition) at 10uM” value does the source give for O=S(=O)(c1ccccc1)c1nc(-c2cccc(Cl)c2)oc1N1CCOCC1 here?
A: The value was -4.94%.

Q: For COc1cc2c(cc1OC)C(Nc1ccc(S(N)(=O)=O)cc1)=NC(C)(C)C2, which “hERG current change (%, negative = inhibition) at 10uM” value is on record?
A: The value was -10.3%.

Q: Which “hERG current change (%, negative = inhibition) at 10uM” value does the source give for O=C(c1cc(S(=O)(=O)N2CCOCC2)ccc1Cl)N1CCc2ccccc2C1 here?
A: Its value is -17.7%.

Q: Cc1ccc(NC(=O)CC2S/C(=N/N=C/C=C/c3ccccc3)NC2=O)cc1Cl (centres unmarked) was tested. Which “hERG current change (%, negative = inhibition) at 10uM” value did it give?
A: The value was 28.3%.

Q: How did the “hERG current change (%, negative = inhibition) at 10uM” value turn out when Cc1ccc(N=Cc2c(C)[nH]n(-c3nc4ccccc4[nH]3)c2=O)cc1 was run?
A: Its value is -5.88%.

Q: Nc1nc2n(n1)C(c1cccs1)CC(c1ccc(F)cc1)N2 (centres unmarked) was tested. Which “hERG current change (%, negative = inhibition) at 10uM” value did it give?
A: Its value is -33.9%.

Q: Which “hERG current change (%, negative = inhibition) at 10uM” value does the source give for COc1ccc(NS(=O)(=O)c2cccc(C(=O)NCC3CCCO3)c2)cc1 (centres unmarked) here?
A: Its value is -0.415%.

Q: COC(=O)c1cn(-c2ccccc2)nc1-c1ccc(OC)c(OC)c1 was tested. Which “hERG current change (%, negative = inhibition) at 10uM” value did it give?
A: Its value is -0.668%.

Q: With O=C(CN(CCc1ccccc1)C(=O)CNS(=O)(=O)c1ccc(F)cc1)NCc1ccco1 as the compound, how does the “hERG current change (%, negative = inhibition) at 10uM” value read?
A: The value was -19.8%.

Q: For COc1ccc(OC)c(Nc2nc(N)c([N+](=O)[O-])c(NCc3ccccc3)n2)c1, which “hERG current change (%, negative = inhibition) at 10uM” value is on record?
A: The value was 19.1%.

Q: For CCc1nc2c(oc3ccccc32)c(=O)[nH]1, which “hERG current change (%, negative = inhibition) at 10uM” value is on record?
A: Its value is 5.22%.

Q: How did the “hERG current change (%, negative = inhibition) at 10uM” value turn out when COc1ccc(C(=O)Nc2nc3ccccc3s2)cc1 was run?
A: Its value is 11.6%.

Q: How did the “hERG current change (%, negative = inhibition) at 10uM” value turn out when O=C1NC(=O)C(CCc2ccncc2)(CCc2ccncc2)C(=O)N1Cc1ccccc1 was run?
A: Its value is -72.5%.

Q: Cc1ccc(S(=O)(=O)N[C@H](C(=O)OCn2nnc3ccccc3c2=O)C(C)C)cc1 was tested. Which “hERG current change (%, negative = inhibition) at 10uM” value did it give?
A: Its value is 1.49%.

Q: For Cc1cc2oc(=O)c3c(c2cc1OC(=O)c1ccco1)CCCC3, which “hERG current change (%, negative = inhibition) at 10uM” value is on record?
A: Its value is 15.2%.

Q: Cc1ccccc1-c1nc(CN(C)C(C)c2ccon2)c(C)o1 (centres unmarked) was tested. Which “hERG current change (%, negative = inhibition) at 10uM” value did it give?
A: The value was 19.2%.

Q: O=C(Nc1cccs1)Nc1cccnc1Cl was tested. Which “hERG current change (%, negative = inhibition) at 10uM” value did it give?
A: The value was 7.97%.

Q: Cc1[nH]cnc1CN1CCc2c(c3ccccc3n2C)C1=O.Cl was tested. Which “hERG current change (%, negative = inhibition) at 10uM” value did it give?
A: The value was -15.2%.

Q: For COc1ccc(N(CC(=O)Nc2c(C)n(C)n(-c3ccccc3)c2=O)S(=O)(=O)c2ccc(C)cc2)cc1OC, which “hERG current change (%, negative = inhibition) at 10uM” value is on record?
A: The value was 9.53%.
